According to publication PMC12136788:
This is one part of the list.

B1: chr19:8913615:8913616:-_ENSMUSG00000071658_ENSMUST00000096259|mus_hu|mus_mus_mus_hu_False|38_48 (ssRNA)
RNA: GGGAGUUCUACAGUCCGACGAUCAGGGUACCAAAACCUUCUGCCUGAAAUGGGUGCCCCACCCAGUAGGGAGUUGCAGCUGAAAGUAUCCGUAGCACUGACAGUUACUAUACGAAAGGAGGCCCCUGGGGAGGGCCAGGCCAGCAACAGAGGAUUGAGCAUCA
B2: chr7:65705844:65705845:+_ENSG00000169902_ENST00000304842|hu_mus|hu_hu_hu_mus_False|8_88 (ssRNA)
RNA: GGGAGUUCUACAGUCCGACGAUCAAACGGAUCUUUGUUACAUAAAUAAGGGGCUGGCUCCCCAUGUUUAACAAUGACCUCCAGAAGGAAGGCUUGCAUGGCAGAAUCUAGCACUUCAUCUGUGACACCAGCCUCAUCCAAGCGCAACAGAGGAUUGAGCAUCA
B3: chr12:111929536:111929537:-_ENSMUSG00000021270_ENSMUST00000094361|mus_mus|motif|central (ssRNA)
RNA: GGGAGUUCUACAGUCCGACGAUCUAAGAUGUAAUUUAAGCCAUCUUAAUUUGGUCUCCUAAGGAAUCCAGCUCAACAGCGGAACACUUCAGACCAGAGCAAACAUGAACAGUAGGUUACGUUACGUCUUAUAACAAACGCUCUCAACAGAGGAUUGAGCAUCA
B4: chr1:10037540:10037541:+_ENSMUSG00000056763_ENSMUST00000071087|mus_mus|FALSE|FALSE (ssRNA)
RNA: GGGAGUUCUACAGUCCGACGAUCCUUGGGCUGUUGUUGGCUGCUUGGUGGAAUGUUCUCCUUAGCCAUAGAGAUUAAUAUUUUACUGUUUUCAGAGAGUUUCUCUGACGCCUUUCCCUUCAUCUCCAUGUACGGUGGAUCACUCAACAGAGGAUUGAGCAUCA
B5: chr9:119834795:119834796:+_ENSMUSG00000032512_ENSMUST00000036561|mus_mus|motif|central (ssRNA)
RNA: GGGAGUUCUACAGUCCGACGAUCCAAACAUGAACCACAAUAUAAAUAUCAAACCAACUCACUGUGAGAUCUUUUUACUCGGGUAACAUAAACUUUAGGUAGCAUCUGAAUGAAACUGCAACUUCAGCAUGGCCGUAAGUUCUGCAACAGAGGAUUGAGCAUCA
B6: chr2:20454729:20454730:-_ENSG00000055917_ENST00000338086|hu_mus|FALSE|FALSE (ssRNA)
RNA: GGGAGUUCUACAGUCCGACGAUCAACAUAAUUGCCAUACUGAUCCUGUACCAACUGUUCUGUGUGUUGGUGAAGUUCUUCUAAGAUGGGUAAGGUCUGCUCUGCCGUGCAGUGCUCUAAGAUACGCUGAAUGACUCUGCAGCCCAACAGAGGAUUGAGCAUCA
B7: chr4:106906351:106906352:-_ENSMUSG00000028617_ENSMUST00000030360|mus_hu|FALSE|FALSE (ssRNA)
RNA: GGGAGUUCUACAGUCCGACGAUCGAGCUGGGGGCCAGAGAAAGGUCAACUUGUAUCUACUAAUCAAUAGGAAUUUAACAAGUCCCAGUCUUCCACAGCAAGACAUACAUAUUUCUGCUUUGAAGGUUGUGAAGAGUUAUUCUGCAACAGAGGAUUGAGCAUCA
B8: chr16:46990815:46990816:-_ENSG00000069345_ENST00000563158|hu_hu|FALSE|FALSE (ssRNA)
RNA: GGGAGUUCUACAGUCCGACGAUCUCAAAAUGAAGAUGUAAAGCUUUGUGGUUAGUUUAAAUUAUACACUCUGUAGAUACUAUACCAAUUUUAAAAGUUAUACAUAGACCAACAGAUGUCCCUCAGUUCAUCUGGAUUGAUAAGCAACAGAGGAUUGAGCAUCA
B9: chr8:74858975:74858976:-_ENSG00000154582_ENST00000284811|hu_mus|hu_hu_hu_mus_True|38_88 (ssRNA)
RNA: GGGAGUUCUACAGUCCGACGAUCGACCUUGUAGGUAAAAUACAUGCAUACUUUCGAUAGCACAUGUGAGGGGAUCUCUCUAAAAUUGACCUCGUUGGUUUCGUUCUCAGCAAACUGACCUGGACCACUCAACAUAGCCUUUAUCAACAGAGGAUUGAGCAUCA
B10: chrX:98862621:98862622:+_ENSMUSG00000034160_ENSMUST00000044475|mus_hu|mus_mus_mus_hu_False|48_58 (ssRNA)
RNA: GGGAGUUCUACAGUCCGACGAUCCUGCAUCUCCUUUAGAGUGUUUCCCAUAUUAGAGUAGGCAUCAGCAAAGGUAGGACUAAUUCGUAUGGCUUCUUUAUAAUGCAUCAGAGCUUCCUGCAGUUUUCCCUGCUGCUGCAGUACCAACAGAGGAUUGAGCAUCA
B11: chr7:99638656:99638657:+_ENSG00000106261_ENST00000324306|hu_hu|motif|central (ssRNA)
RNA: GGGAGUUCUACAGUCCGACGAUCAGCCCUCUAUAUAGAUUUAGGCUUAUGCUGACCUCGUUGUAAAAUCUGUAUUUAACGGAAAGUUAAUAAAAAUACAUAUGUUCAUUUUAAAAUAAUUACUGAUUUUGCUUGGCUAUCCCACAACAGAGGAUUGAGCAUCA
B12: chr15:55677894:55677895:-_ENSG00000260916_ENST00000569205|hu_mus|FALSE|FALSE (ssRNA)
RNA: GGGAGUUCUACAGUCCGACGAUCGGAACAUUCUAGAGUCAGUCCACAGUUGUCACUGGCUGUGGCAGAAUUCACGAUCUCUAUAUCAGAACCCUCAUGAUUGAUGACAGUCCAGCCACAAGAUGAGUCGCUGUCGCUGGAACUCAACAGAGGAUUGAGCAUCA
B13: chr1:66459500:66459501:+_ENSMUSG00000015222_ENSMUST00000114013|mus_hu|FALSE|FALSE (ssRNA)
RNA: GGGAGUUCUACAGUCCGACGAUCUAAAAAGGCAGGGGCAAAGGGCGAUGUUUCUGUAACUAUUUCAUUCUUCAUGACAUCUAAAGGAAGAGUGAAGCUUCCCCCUUGAAAGGGACUUGGCAUGGGAGAAUCAAACUGUUUCCCCAACAGAGGAUUGAGCAUCA
B14: chr1:109605286:109605287:-_ENSG00000197780_ENST00000461096|hu_mus|hu_hu_hu_mus_True|1_8 (ssRNA)
RNA: GGGAGUUCUACAGUCCGACGAUCAAGUUUCAGAGUAACAUUCAGUAACCUCUUUAAAUGCAAUUAUCCUUAUUAUAAGCUAAGCAGAAUAAUAAUUUAAUACCGUAAGUGAACUACACACAAAGCCGUGUAUUCAGAACUACACAACAGAGGAUUGAGCAUCA

What follows are binders tested against T1, UNK ZnF1-3 (human, UniProt Q9C0B0 31-174) (assay: nsRBNS (natural sequence RNA bind-n-seq); RBNS binding buffer (assumed for nsRBNS): 25 mM Tris pH 7.5, 150 mM KCl, 3 mM MgCl2, 0.01% Triton X-100, 500 ug/ml BSA, 20 U/ml SUPERase-In, 4 C; UNK is unkempt and MSI1 is Musashi-1; names of the RNAs are library labels; protein concentration not given here; high values mean tight binding).
T1 sequence: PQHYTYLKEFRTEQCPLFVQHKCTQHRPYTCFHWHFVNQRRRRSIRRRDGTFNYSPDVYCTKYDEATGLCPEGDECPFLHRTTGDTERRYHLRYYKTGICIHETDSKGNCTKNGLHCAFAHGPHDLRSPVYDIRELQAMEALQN
With B1 the binding signal was 1.21 enrichment R.
B2 showed a binding signal of 0.731 enrichment R.
Work on B3 yielded a binding signal of 0.79 enrichment R.
B4 gave a binding signal of 0.405 enrichment R.
B5 was tested, and the binding signal was 1.21 enrichment R.
Binder B6 has a binding signal of 0.857 enrichment R.
With B7 the binding signal was 2.14 enrichment R.
With B8 the binding signal was 0.542 enrichment R.
For B9, the binding signal was 0.75 enrichment R.
B10 gave a binding signal of 1.18 enrichment R.
B11 showed a binding signal of 2.47 enrichment R.
B12 showed a binding signal of 0.561 enrichment R.
B13 was tested, and the binding signal was 0.754 enrichment R.
For B14, the binding signal was 0.426 enrichment R.
